# Results are given in words; binding and its absence hold for the method and conditions named. Binding seen in cells or lysates may run through a third protein. Some binding calls cover weakened binding; strength is not graded here. For some of these results: Where a sequence is shown, tags or fusion partners need not be part of it.
# By UniProt entry, the sequences of proteins in these tests, tags left out. Residues count along the entry.
# UniProt P01135, residues 24-160: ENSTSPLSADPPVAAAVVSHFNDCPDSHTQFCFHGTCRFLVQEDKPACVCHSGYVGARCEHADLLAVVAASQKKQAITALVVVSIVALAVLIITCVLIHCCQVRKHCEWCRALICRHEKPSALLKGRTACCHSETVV
# UniProt P01133, residues 23-1207: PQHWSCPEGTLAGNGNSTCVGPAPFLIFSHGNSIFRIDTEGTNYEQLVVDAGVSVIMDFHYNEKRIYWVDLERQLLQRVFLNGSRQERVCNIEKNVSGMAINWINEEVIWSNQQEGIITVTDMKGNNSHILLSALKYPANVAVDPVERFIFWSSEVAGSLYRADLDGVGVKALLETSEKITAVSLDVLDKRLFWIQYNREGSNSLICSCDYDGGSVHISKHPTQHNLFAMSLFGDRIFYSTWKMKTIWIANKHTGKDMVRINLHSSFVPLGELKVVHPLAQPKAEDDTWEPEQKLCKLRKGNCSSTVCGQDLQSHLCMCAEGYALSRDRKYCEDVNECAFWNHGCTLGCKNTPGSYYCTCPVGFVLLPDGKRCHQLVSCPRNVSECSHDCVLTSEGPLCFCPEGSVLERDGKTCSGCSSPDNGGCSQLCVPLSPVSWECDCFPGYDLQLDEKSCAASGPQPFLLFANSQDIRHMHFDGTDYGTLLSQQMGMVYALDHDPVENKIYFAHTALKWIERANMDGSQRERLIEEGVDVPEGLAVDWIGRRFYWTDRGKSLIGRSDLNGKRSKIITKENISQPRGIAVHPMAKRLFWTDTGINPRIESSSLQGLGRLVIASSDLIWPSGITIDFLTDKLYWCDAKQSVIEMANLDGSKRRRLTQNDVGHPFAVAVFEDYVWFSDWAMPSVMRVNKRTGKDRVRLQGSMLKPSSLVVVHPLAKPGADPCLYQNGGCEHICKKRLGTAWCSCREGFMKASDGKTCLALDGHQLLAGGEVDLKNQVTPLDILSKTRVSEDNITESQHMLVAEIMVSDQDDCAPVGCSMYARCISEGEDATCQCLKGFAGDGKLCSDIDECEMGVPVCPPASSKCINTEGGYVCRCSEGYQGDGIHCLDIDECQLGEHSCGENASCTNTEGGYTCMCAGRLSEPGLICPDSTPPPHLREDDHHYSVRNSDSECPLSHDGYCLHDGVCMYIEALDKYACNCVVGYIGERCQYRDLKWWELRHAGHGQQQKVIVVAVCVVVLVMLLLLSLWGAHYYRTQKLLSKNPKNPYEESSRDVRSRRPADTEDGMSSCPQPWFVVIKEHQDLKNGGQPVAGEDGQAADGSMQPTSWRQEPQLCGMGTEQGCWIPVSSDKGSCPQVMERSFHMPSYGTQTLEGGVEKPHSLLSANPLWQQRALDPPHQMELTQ
# UniProt Q99075, residues 20-208: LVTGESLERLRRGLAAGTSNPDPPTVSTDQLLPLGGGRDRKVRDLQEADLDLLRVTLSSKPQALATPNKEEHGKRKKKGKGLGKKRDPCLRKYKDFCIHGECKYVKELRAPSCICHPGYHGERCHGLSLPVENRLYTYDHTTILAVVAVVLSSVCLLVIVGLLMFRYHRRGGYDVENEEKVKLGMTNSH
# UniProt O14944, residues 30-169: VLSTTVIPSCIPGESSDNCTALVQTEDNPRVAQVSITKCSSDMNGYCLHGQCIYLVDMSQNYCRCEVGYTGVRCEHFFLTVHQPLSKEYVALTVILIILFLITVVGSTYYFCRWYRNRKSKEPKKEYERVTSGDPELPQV
# T1: RHBDD1wt-Myc (human) (UniProt Q8TEB9)
# T1 sequence: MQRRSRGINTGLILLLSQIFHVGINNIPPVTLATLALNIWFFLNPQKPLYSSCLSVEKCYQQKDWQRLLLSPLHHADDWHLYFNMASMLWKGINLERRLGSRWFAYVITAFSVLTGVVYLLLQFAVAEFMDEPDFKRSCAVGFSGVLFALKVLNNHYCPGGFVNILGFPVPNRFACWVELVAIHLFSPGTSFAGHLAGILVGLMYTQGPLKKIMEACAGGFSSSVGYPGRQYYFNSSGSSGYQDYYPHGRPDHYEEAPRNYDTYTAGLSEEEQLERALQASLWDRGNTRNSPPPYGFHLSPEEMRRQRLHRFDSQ
# T2: RHBDD1 with FLAG and SBP epitopes knocked in at the COOH terminus (endogenous locus, HCT116) (human (endogenous in HCT116)) (UniProt Q8TEB9)
# T2 sequence: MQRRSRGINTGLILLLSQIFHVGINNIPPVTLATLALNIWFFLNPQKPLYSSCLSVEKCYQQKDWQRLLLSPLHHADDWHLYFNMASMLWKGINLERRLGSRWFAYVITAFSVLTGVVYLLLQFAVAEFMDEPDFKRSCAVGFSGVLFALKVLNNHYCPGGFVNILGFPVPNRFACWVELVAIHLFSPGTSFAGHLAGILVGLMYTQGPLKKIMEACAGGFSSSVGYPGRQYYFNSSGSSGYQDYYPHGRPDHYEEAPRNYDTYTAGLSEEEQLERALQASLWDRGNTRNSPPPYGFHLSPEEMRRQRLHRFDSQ
# Assays:
# [1] = biological target: T1, RHBDD1wt-Myc (human); experiment: co-IP; HEK293T cells transiently co-transfected, 48 h; lysis in 50 mM Tris-HCl pH 7.4, 150 mM NaCl, 1% NP-40, 1 mM EDTA, 10% glycerol; anti-V5 or anti-Myc affinity gel (bidirectional); immunoblot with anti-Myc or anti-V5
# [2] = biological target: T2, RHBDD1 with FLAG and SBP epitopes knocked in at the COOH terminus (endogenous locus, HCT116) (human (endogenous in HCT116)); experiment: co-IP; targeted knock-in HCT116 cell lysate (50 mM Tris-HCl pH 7.4, 100 mM NaCl, 0.5% NP-40, 1 mM EDTA); anti-FLAG M2 affinity gel or control IgG; immunoblot with anti-proTGFα or anti-FLAG
# [3] = biological target: GST-proTGFα (UniProt P01135); experiment: pull-down; 2 μg purified GST-proTGFα or GST immobilized on glutathione-Sepharose beads, mixed with 400 μg HCT116 cell lysate (50 mM Tris-HCl pH 7.4, 150 mM NaCl, 1% NP-40, 1 mM EDTA), 2 h at 4 °C; immunoblot with anti-RHBDD1; only the target purified
binding [1],Molecule,further results
no binding,EGF (V5-tagged expression construct) (from UniProt P01133 23-1207) (ligand),
no binding,HB-EGF (V5-tagged expression construct) (from UniProt Q99075 20-208) (ligand),
,endogenous proTGFα (from UniProt P01135 24-160) (ligand),binding [2]: binds
no binding,epiregulin (V5-tagged expression construct) (from UniProt O14944 30-169) (ligand),
binds,proTGFα-V5 (from UniProt P01135 24-160) (ligand),
no binding,"betacellulin (V5-tagged expression construct) (ligand, UniProt P35070 32-178) DGNSTRSPETNGLLCGDPEENCAATTTQSKRKGHFSRCPKQYKHYCIKGRCRFVVAEQTPSCVCDEGYIGARCERVDLFYLRGDRGQILVICLIAVMVVFIILVIGVCTCCHPLRKRRKRKKKEEEMETLGKDITPINEDIEETNIA",
,"RHBDD1 (endogenous, HCT116 cell lysates) (enzyme, UniProt Q8TEB9 1-315) MQRRSRGINTGLILLLSQIFHVGINNIPPVTLATLALNIWFFLNPQKPLYSSCLSVEKCYQQKDWQRLLLSPLHHADDWHLYFNMASMLWKGINLERRLGSRWFAYVITAFSVLTGVVYLLLQFAVAEFMDEPDFKRSCAVGFSGVLFALKVLNNHYCPGGFVNILGFPVPNRFACWVELVAIHLFSPGTSFAGHLAGILVGLMYTQGPLKKIMEACAGGFSSSVGYPGRQYYFNSSGSSGYQDYYPHGRPDHYEEAPRNYDTYTAGLSEEEQLERALQASLWDRGNTRNSPPPYGFHLSPEEMRRQRLHRFDSQ",binding [3]: binds

# Reference: PMC4560765
